Source: the supplement of paper PMC8728848
The other results are listed elsewhere or left out.

Assays:
Test in all cases: glycan array binding signal (z-score within array); higher = stronger binding
Conditions in all cases: glycan notation: IUPAC condensed, linker removed
Neu5Ac(a2-6)Gal(b1-4)Glc = target: Neu5Ac(a2-6)Gal(b1-4)Glc
How it was run: (§1)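 From the Consortium for Functional Glycomics database, 3228 arrays were curated, keeping only those whose protein sequence was available. Binding is given as a within-array Z-score averaged across arrays sharing a protein sequence and across linkers. Negative Z-scores can be read as non-binding.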

[1] = target: Neu5Ac(a2-6)Gal(b1-4)GlcNAc
How it was run: as §1

[2] = target: Neu5Ac(a2-6)Gal(b1-4)GlcNAc(b1-2)Man
How it was run: as §1

[3] = target: Neu5Ac(a2-6)Gal(b1-4)GlcNAc(b1-2)Man(a1-3)Man(b1-4)GlcNAc(b1-4)GlcNAc
How it was run: as §1

[4] = target: Neu5Ac(a2-6)Gal(b1-4)GlcNAc(b1-2)Man(a1-3)[Gal(b1-4)GlcNAc(b1-2)Man(a1-6)]Man(b1-4)GlcNAc(b1-4)GlcNAc
How it was run: as §1

[5] = target: Neu5Ac(a2-6)Gal(b1-4)GlcNAc(b1-2)Man(a1-3)[GlcNAc(b1-2)Man(a1-6)]Man(b1-4)GlcNAc(b1-4)GlcNAc
How it was run: as §1

[6] = target: Neu5Ac(a2-6)Gal(b1-4)GlcNAc(b1-2)Man(a1-3)[GlcNAc(b1-4)][Neu5Ac(a2-6)Gal(b1-4)GlcNAc(b1-2)Man(a1-6)]Man(b1-4)GlcNAc(b1-4)GlcNAc
How it was run: as §1

[7] = target: Neu5Ac(a2-6)Gal(b1-4)GlcNAc(b1-2)Man(a1-3)[Man(a1-6)]Man(b1-4)GlcNAc(b1-4)GlcNAc
How it was run: as §1

[8] = target: Neu5Ac(a2-6)Gal(b1-4)GlcNAc(b1-2)Man(a1-3)[Neu5Ac(a2-3)Gal(b1-4)GlcNAc(b1-2)Man(a1-6)]Man(b1-4)GlcNAc(b1-4)GlcNAc
How it was run: as §1

[9] = target: Neu5Ac(a2-6)Gal(b1-4)GlcNAc(b1-2)Man(a1-3)[Neu5Ac(a2-6)Gal(b1-4)GlcNAc(b1-2)Man(a1-6)]Man(b1-4)GlcNAc(b1-4)GlcNAc
How it was run: as §1

[10] = target: Neu5Ac(a2-6)Gal(b1-4)GlcNAc(b1-2)Man(a1-3)[Neu5Ac(a2-6)Gal(b1-4)GlcNAc(b1-2)Man(a1-6)]Man(b1-4)GlcNAc(b1-4)[Fuc(a1-6)]GlcNAc
How it was run: as §1

[11] = target: Neu5Ac(a2-6)Gal(b1-4)GlcNAc(b1-2)Man(a1-6)Man(b1-4)GlcNAc(b1-4)GlcNAc
How it was run: as §1

[12] = target: Neu5Ac(a2-6)Gal(b1-4)GlcNAc(b1-2)Man(a1-6)[Gal(b1-4)GlcNAc(b1-2)Man(a1-3)]Man(b1-4)GlcNAc(b1-4)GlcNAc
How it was run: as §1

[13] = target: Neu5Ac(a2-6)Gal(b1-4)GlcNAc(b1-2)Man(a1-6)[GlcNAc(b1-2)Man(a1-3)]Man(b1-4)GlcNAc(b1-4)GlcNAc
How it was run: as §1

[14] = target: Neu5Ac(a2-6)Gal(b1-4)GlcNAc(b1-2)Man(a1-6)[Man(a1-3)]Man(b1-4)GlcNAc(b1-4)GlcNAc
How it was run: as §1

[15] = target: Neu5Ac(a2-6)Gal(b1-4)GlcNAc(b1-2)[Neu5Ac(a2-6)Gal(b1-4)GlcNAc(b1-4)]Man(a1-3)[GlcNAc(b1-4)][Neu5Ac(a2-6)Gal(b1-4)GlcNAc(b1-2)[Neu5Ac(a2-6)Gal(b1-4)GlcNAc(b1-6)]Man(a1-6)]Man(b1-4)GlcNAc(b1-4)GlcNAc
How it was run: as §1

[16] = target: Neu5Ac(a2-6)Gal(b1-4)GlcNAc(b1-2)[Neu5Ac(a2-6)Gal(b1-4)GlcNAc(b1-4)]Man(a1-3)[GlcNAc(b1-4)][Neu5Ac(a2-6)Gal(b1-4)GlcNAc(b1-4)Man(a1-6)]Man(b1-4)GlcNAc(b1-4)GlcNAc
How it was run: as §1

[17] = target: Neu5Ac(a2-6)Gal(b1-4)GlcNAc(b1-2)[Neu5Ac(a2-6)Gal(b1-4)GlcNAc(b1-6)]Man(a1-6)[Neu5Ac(a2-6)Gal(b1-4)GlcNAc(b1-2)Man(a1-3)][GlcNAc(b1-4)]Man(b1-4)GlcNAc(b1-4)GlcNAc
How it was run: as §1

[18] = target: Neu5Ac(a2-6)Gal(b1-4)GlcNAc(b1-3)Gal(b1-3)GlcNAc
How it was run: as §1

[19] = target: Neu5Ac(a2-6)Gal(b1-4)GlcNAc(b1-3)Gal(b1-4)GlcNAc
How it was run: as §1

[20] = target: Neu5Ac(a2-6)Gal(b1-4)GlcNAc(b1-3)Gal(b1-4)GlcNAc(b1-2)Man(a1-3)[Neu5Ac(a2-6)Gal(b1-4)GlcNAc(b1-3)Gal(b1-4)GlcNAc(b1-2)Man(a1-6)]GalNAc
How it was run: as §1

[21] = target: Neu5Ac(a2-6)Gal(b1-4)GlcNAc(b1-3)Gal(b1-4)GlcNAc(b1-3)Gal(b1-4)GlcNAc
How it was run: as §1

[22] = target: Neu5Ac(a2-6)Gal(b1-4)GlcNAc(b1-3)Gal(b1-4)GlcNAc(b1-3)Gal(b1-4)GlcNAc(b1-2)Man(a1-3)[Neu5Ac(a2-6)Gal(b1-4)GlcNAc(b1-3)Gal(b1-4)GlcNAc(b1-3)Gal(b1-4)GlcNAc(b1-2)Man(a1-6)]GalNAc
How it was run: as §1

[23] = target: Neu5Ac(a2-6)Gal(b1-4)GlcNAc(b1-3)Gal(b1-4)GlcNAc(b1-3)GalNAc
How it was run: as §1

[24] = target: Neu5Ac(a2-6)Gal(b1-4)GlcNAc(b1-3)Gal(b1-4)GlcNAc(b1-3)[Neu5Ac(a2-6)Gal(b1-4)GlcNAc(b1-3)Gal(b1-4)GlcNAc(b1-6)]GalNAc
How it was run: as §1

[25] = target: Neu5Ac(a2-6)Gal(b1-4)GlcNAc(b1-3)Gal(b1-4)GlcNAc(b1-6)[Gal(b1-3)]GalNAc
How it was run: as §1

[26] = target: Neu5Ac(a2-6)Gal(b1-4)GlcNAc(b1-3)Gal(b1-4)[Fuc(a1-3)]GlcNAc(b1-3)Gal(b1-4)[Fuc(a1-3)]GlcNAc
How it was run: as §1

[27] = target: Neu5Ac(a2-6)Gal(b1-4)GlcNAc(b1-3)GalNAc
How it was run: as §1

[28] = target: Neu5Ac(a2-6)Gal(b1-4)GlcNAc(b1-3)[Neu5Ac(a2-6)Gal(b1-4)GlcNAc(b1-6)]GalNAc
How it was run: as §1

[29] = target: Neu5Ac(a2-6)Gal(b1-4)GlcNAc(b1-6)GalNAc
How it was run: as §1

[30] = target: Neu5Ac(a2-6)Gal(b1-4)GlcNAc(b1-6)[Gal(b1-3)GlcNAc(b1-3)]Gal(b1-4)Glc
How it was run: as §1

[31] = target: Neu5Ac(a2-6)Gal(b1-4)GlcNAc(b1-6)[Gal(b1-3)]GalNAc
How it was run: as §1

[32] = target: Neu5Ac(a2-6)Gal(b1-4)GlcNAc6S
How it was run: as §1

Neu5Ac(a2-6)GalNAc = target: Neu5Ac(a2-6)GalNAc
How it was run: as §1

[33] = target: Neu5Ac(a2-6)GalNAc(b1-4)GlcNAc
How it was run: as §1

[34] = target: Neu5Ac(a2-6)GalNAc(b1-4)GlcNAc6S
How it was run: as §1

[35] = target: Neu5Ac(a2-6)GlcNAc(b1-4)GlcNAc
How it was run: as §1

[36] = target: Neu5Ac(a2-6)GlcNAc(b1-4)GlcNAc(b1-4)GlcNAc
How it was run: as §1

B1: ACA (Amaranthus caudatus) (protein)
chain: MAGLPVIMCLKSNNNQKYLRYQSDNIQQYGLLQFSADKILDPLAQFEVEPSKTYDGLVHIKSRYTNKYLVRWSPNHYWITASANEPDENKSNWACTLFKPLYVEEGNMKKVRLLHVQLGHYTQNYTVGGSFVSYLFAESSQIDTGSKDVFHVIDWKSIFQFPKRYVTFKGNNGKYLGVITINQLPCLQFGYDNLNDPKVAHEMFVTSNGTICIKSTYMNKFWRLSTDDWILVDGNDPRETNEAAALFRSDVHDFNVISLLNMQKTWFIKRFTSGKPGFINCMNAATQNVDETAILEIIELGSNN
- glycan array binding signal (z-score) (Neu5Ac(a2-6)Gal(b1-4)Glc): 0.034
- glycan array binding signal (z-score) [1]: -0.272
- glycan array binding signal (z-score) [2]: -0.035
- glycan array binding signal (z-score) [3]: -0.477
- glycan array binding signal (z-score) [4]: -0.257
- glycan array binding signal (z-score) [5]: -0.564
- glycan array binding signal (z-score) [6]: -0.58
- glycan array binding signal (z-score) [7]: -0.11
- glycan array binding signal (z-score) [8]: -0.055
- glycan array binding signal (z-score) [9]: -0.264
- glycan array binding signal (z-score) [10]: -0.109
- glycan array binding signal (z-score) [11]: -0.371
- glycan array binding signal (z-score) [12]: 0.04
- glycan array binding signal (z-score) [13]: -0.358
- glycan array binding signal (z-score) [14]: -0.674
- glycan array binding signal (z-score) [15]: -0.392
- glycan array binding signal (z-score) [16]: -0.399
- glycan array binding signal (z-score) [17]: -0.582
- glycan array binding signal (z-score) [18]: -0.069
- glycan array binding signal (z-score) [19]: 0.125
- glycan array binding signal (z-score) [20]: 0.215
- glycan array binding signal (z-score) [21]: -0.252
- glycan array binding signal (z-score) [22]: 3.17
- glycan array binding signal (z-score) [23]: -0.342
- glycan array binding signal (z-score) [24]: 4.69
- glycan array binding signal (z-score) [25]: 0.797
- glycan array binding signal (z-score) [26]: 0.326
- glycan array binding signal (z-score) [27]: 0.008
- glycan array binding signal (z-score) [28]: -0.674
- glycan array binding signal (z-score) [29]: 0.57
- glycan array binding signal (z-score) [30]: -0.601
- glycan array binding signal (z-score) [31]: 0.235
- glycan array binding signal (z-score) [32]: 0.106
- glycan array binding signal (z-score) (Neu5Ac(a2-6)GalNAc): -0.273
- glycan array binding signal (z-score) [33]: -0.631
- glycan array binding signal (z-score) [34]: -0.207
- glycan array binding signal (z-score) [35]: -0.269
- glycan array binding signal (z-score) [36]: -0.43
